In US20190322765A1 (Hoffmann-La Roche, published 2019):
“And” between values parts separate entries of the source, which are not always exact repeats. Equal values may be shown once. Values belong to the binder of their own block, whether it stands above or below them.

Legend:
[1] = target: T1, human IL-2R α-subunit, monomeric, with AcTev cleavage site and Avi His tag (human); test: SPR, receptor on chip, 25°C
T1 construct: also called Hu IL-2R α; CD25
T1 chain: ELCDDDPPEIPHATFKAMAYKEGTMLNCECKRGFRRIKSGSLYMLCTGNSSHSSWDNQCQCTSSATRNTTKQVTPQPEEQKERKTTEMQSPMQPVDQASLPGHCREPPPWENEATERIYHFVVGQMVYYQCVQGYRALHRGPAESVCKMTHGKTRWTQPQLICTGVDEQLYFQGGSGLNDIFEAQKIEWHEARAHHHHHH

[2] = target: T2, human IL-2R βγ heterodimer, subunit-Fc knobs-into-holes fusion (human); test: SPR, receptor on chip, construct analyte, 25°C, two state reaction fit
T2 construct: The entries may hold a leader peptide; also called Hu IL-2R βγ; human IL2-R β knob γ hole heterodimer

[3] = target: T3, murine IL-2R βγ heterodimer (β knob γ hole Fc fusion) (murine, UniProt P16297 27-240; P34902 23-263); test: as above
T3 construct: also called Mu IL-2R βγ; mouse IL-2R βγ heterodimer; not shown: Fc knob/hole part
T3 sequence (looked up) 1: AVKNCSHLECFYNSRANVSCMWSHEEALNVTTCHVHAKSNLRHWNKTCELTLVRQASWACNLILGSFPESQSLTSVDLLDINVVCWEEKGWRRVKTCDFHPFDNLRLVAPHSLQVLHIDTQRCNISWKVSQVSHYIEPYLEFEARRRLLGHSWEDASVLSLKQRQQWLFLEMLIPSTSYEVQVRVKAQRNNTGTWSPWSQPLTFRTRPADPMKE
T3 sequence (looked up) 2: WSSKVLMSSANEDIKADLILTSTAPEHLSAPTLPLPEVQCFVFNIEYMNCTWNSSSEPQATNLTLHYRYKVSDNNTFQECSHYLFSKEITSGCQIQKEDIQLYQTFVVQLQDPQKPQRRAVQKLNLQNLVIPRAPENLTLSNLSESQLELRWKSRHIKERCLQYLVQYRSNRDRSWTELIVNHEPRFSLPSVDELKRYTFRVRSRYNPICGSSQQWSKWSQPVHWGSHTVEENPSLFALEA

[4] = target: T4, IL-2R βγ heterodimer on human cells (NK92 cells, NK and T cells of PBMC) (human, UniProt P14784 27-551; P31785 23-369); test: cell-based or functional assay
T4 sequence (looked up) 1: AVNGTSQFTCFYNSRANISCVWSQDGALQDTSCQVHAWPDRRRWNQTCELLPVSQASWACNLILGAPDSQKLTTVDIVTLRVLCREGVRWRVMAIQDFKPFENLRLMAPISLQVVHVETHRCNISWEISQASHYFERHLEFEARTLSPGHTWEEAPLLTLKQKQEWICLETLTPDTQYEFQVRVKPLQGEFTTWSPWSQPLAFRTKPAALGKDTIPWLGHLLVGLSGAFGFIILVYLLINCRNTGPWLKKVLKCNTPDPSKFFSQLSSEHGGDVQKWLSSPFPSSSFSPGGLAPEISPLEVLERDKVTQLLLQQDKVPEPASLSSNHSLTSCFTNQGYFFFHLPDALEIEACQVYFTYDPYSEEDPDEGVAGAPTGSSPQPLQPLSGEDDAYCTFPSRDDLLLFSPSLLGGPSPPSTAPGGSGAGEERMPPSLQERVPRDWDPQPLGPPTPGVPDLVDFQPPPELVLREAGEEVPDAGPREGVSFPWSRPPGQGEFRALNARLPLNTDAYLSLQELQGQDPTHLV
T4 sequence (looked up) 2: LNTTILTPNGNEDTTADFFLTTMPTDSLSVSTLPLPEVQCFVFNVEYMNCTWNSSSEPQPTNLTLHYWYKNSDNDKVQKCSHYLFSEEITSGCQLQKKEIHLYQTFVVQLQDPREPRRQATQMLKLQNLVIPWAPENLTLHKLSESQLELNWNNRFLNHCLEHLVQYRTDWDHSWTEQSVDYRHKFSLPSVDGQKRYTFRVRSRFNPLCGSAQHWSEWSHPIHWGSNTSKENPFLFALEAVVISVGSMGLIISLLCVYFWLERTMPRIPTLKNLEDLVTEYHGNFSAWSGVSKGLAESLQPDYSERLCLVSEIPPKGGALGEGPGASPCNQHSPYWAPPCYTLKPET

human FAP-His = target: T5, human FAP-His (human, UniProt Q12884 27-760); test: SPR bridging: construct captured on immobilized human IL-2R βγ, human FAP analyte, 1:1 fit, 25°C
T5 construct: also called Hu FAP; His-tagged human FAP; not shown: His tag

[5] = target: T6, murine IL-2R α-subunit, recombinant monomeric (murine, UniProt P01590 22-236, limits assumed); test: SPR, receptor on chip, 25°C
T6 construct: also called Mu IL-2R α
T6 sequence (looked up): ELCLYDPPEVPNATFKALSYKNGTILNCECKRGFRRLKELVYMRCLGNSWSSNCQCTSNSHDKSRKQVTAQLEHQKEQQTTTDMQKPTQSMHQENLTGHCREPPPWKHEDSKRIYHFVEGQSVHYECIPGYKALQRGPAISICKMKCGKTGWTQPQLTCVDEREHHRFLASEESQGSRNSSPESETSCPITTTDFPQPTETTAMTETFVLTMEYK

[6] = target: T1, human IL-2R α-subunit, monomeric, with …; test: SPR, receptor on CM5, 25°C
[7] = target: T7, human DPPIV on transfected HEK 293 cells (human, UniProt P27487 1-766); test: FACS on HEK 293-human DPPIV cells, with HEK mock-transfected cells, cells only and sec. antibody as controls; concentration not shown
T7 construct: whole, on cells; also called CD26
T7 sequence (P27487 whole entry): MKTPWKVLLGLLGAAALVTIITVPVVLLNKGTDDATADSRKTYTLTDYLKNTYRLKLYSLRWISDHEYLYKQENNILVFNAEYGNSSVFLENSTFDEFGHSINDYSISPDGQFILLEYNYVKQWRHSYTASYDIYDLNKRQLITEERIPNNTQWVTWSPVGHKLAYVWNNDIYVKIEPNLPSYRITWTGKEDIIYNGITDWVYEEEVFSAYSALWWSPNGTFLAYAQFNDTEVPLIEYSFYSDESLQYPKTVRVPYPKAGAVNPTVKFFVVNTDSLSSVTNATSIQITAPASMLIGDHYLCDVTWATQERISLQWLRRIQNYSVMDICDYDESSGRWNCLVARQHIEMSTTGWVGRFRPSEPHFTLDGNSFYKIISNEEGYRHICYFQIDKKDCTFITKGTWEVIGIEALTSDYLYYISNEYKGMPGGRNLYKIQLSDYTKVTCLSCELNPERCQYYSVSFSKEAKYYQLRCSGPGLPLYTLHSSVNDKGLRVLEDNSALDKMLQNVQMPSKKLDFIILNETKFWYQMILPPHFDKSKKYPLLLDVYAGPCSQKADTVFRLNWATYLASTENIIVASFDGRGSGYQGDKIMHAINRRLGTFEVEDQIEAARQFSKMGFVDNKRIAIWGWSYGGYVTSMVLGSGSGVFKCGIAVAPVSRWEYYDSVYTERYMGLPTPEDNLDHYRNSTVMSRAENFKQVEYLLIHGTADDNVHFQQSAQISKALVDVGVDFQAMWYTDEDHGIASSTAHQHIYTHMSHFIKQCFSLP

[8] = target: T8, human FAP expressed on stably transfected HEK293 cells (human, UniProt Q12884 1-760); test: FACS on stably transfected HEK293 cells
T8 construct: whole, on cells

[9] = target: T2, human IL-2R βγ heterodimer, subunit-Fc …; test: SPR, receptor on CM5, 25°C, apparent KD, 1:1 fit
[10] = target: FAP on GM05389 fibroblasts; test: FACS on GM05389 fibroblasts, surface-bound construct detected with secondary antibody after the times shown (internalization analysis); concentration not shown
[11] = target: T2, human IL-2R βγ heterodimer, subunit-Fc …; test: SPR, receptor on CM5, 25°C, kinetic
[12] = target: T1, human IL-2R α-subunit, monomeric, with …; test: SPR, receptor on CM5, 25°C, kinetic
[13] = target: T1, human IL-2R α-subunit, monomeric, with …; test: SPR, receptor on CM5, 25°C, steady state

binding result [1]: no binding (tested: 200 nM)
Kd [2]: 5.6 nM
Kd [3]: 68.8 nM
EC50 of IFN-γ release by NK92 cells [4]: 24.4 nM
B1: 4G8 Fab-IL-2 (triple mutant F42A/Y45A/L72G)-Fab (other)
heavy: [no letters for about 100 residues]GWLGNFDYWGQGTLVTVSSASTKGPSVFPLAPSSKSTSGGTAALGCLVKDYFPEPVTVSWNSGALTSGVHTFPAVLQSSGLYSLSSVVTVPSSSLGTQTYICNVNHKPSNTKVDKKVEPKSCDSGGGGSGGGGSGGGGAPTSSSTKKTQLQLEHLLLDLQMILNGINNYKNPKLTRMLTAKFAMPKKATELKHLQCLEEELKPLEEVLNGAQSKNFHLRPRDLISNINVIVLELKGSETTFMCEYADETATIVEFLNRWITFAQSIISTLTSGGGGSGGGGSGGGG[no letters for about 100 residues][no letters for about 120 residues]
light: EIVLTQSPGTLSLSPGERATLSCRASQSVSRSYLAWYQQKPGQAPRLLIIGASTRATGIPDRFSGSGSGTDFTLTISRLEPEDFAVYYCQQGQVIPPTFGQGTKVEIKRTVAAPSVFIFPPSDEQLKSGTASVVCLLNNFYPREAKVQWKVDNALQSGNSQESVTEQDSKDSTYSLSSTLTLSKADYEKHKVYACEVTHQGLSSPVTKSFNRGEC
notes: Fab-IL-2-Fab immunoconjugate, triple mutant; also called 4G8 IL-2 triple mutant F42A/Y45A/L72G; 4G8 Fab-IL-2 (triple mutant 42/45/72)-Fab; copies: 1 + 2

Kd (human FAP-His): 5.6 nM
binding result [5]: no binding (tested: 200 nM)
binding result [6]: no binding (tested: 300 nM)
binding result [7]: no binding
EC50 [8]: 0.7 nM
Kd [9]: 10.4 nM
binding result [10]: binds
Kd [2]: 5.2 nM
Kd [3]: 56.2 nM
B2: 4G8 Fab-IL-2 qm-Fab (other)
chain: [no letters for about 100 residues]GWLGNFDYWGQGTLVTVSSASTKGPSVFPLAPSSKSTSGGTAALGCLVKDYFPEPVTVSWNSGALTSGVHTFPAVLQSSGLYSLSSVVTVPSSSLGTQTYICNVNHKPSNTKVDKKVEPKSCDSGGGGSGGGGSGGGGAPASSSTKKTQLQLEHLLLDLQMILNGINNYKNPKLTRMLTAKFAMPKKATELKHLQCLEEELKPLEEVLNGAQSKNFHLRPRDLISNINVIVLELKGSETTFMCEYADETATIVEFLNRWITFAQSIISTLTSGGGGSGGGGSGGGG[no letters for about 100 residues][no letters for about 120 residues]
light: B1 light
notes: Fab-IL-2-Fab immunoconjugate against FAP with quadruple mutant IL-2; also called 4G8 IL-2 quadruple mutant T3A/F42A/Y45A/L72G; FAP 4G8 qm

Kd [11]: 8.6 nM and 9.8 nM
Kd [12]: 8.8 nM and 10.1 nM
Kd [13]: 6.8 nM and 10.9 nM
B3: MHLG1-KV9 Fab-IL-2 wt-Fab (other)
heavy: EVQLVESGGGLVKPGGSLRLSCAASGFTFSNYWMNWVRQAPGKGLEWVAEIRLKSNNFGRYYAASVKGRFTISRDDSKNTLYLQMNSLKTEDTAVYYCTTYGNYVGHYFDHWGQGTTVTVSSASTKGPSVFPLAPSSKSTSGGTAALGCLVKDYFPEPVTVSWNSGALTSGVHTFPAVLQSSGLYSLSSVVTVPSSSLGTQTYICNVNHKPSNTKVDKKVEPKSCDSGGGGSGGGGSGGGG[no letters for about 150 residues]SGGGGSGGGGSGGGGEVQLVESGGGLVKPGGSLRLSCAASGFTFSNYWMNWVRQAPGKGLEWVAEIRLKSNNFGRYYAASVKGRFTISRDDSKNTLYLQMNSLKTEDTAVYYCTTYGNYVGHYFDHWGQGTTVTVSSASTKGPSVFPLAPSSKSTSGGTAALGCLVKDYFPEPVTVSWNSGALTSGVHTFPAVLQSSGLYSLSSVVTVPSSSLGTQTYICNVNHKPSNTKVDKKVEPKSCD
light: DIQLTQSPSFLSASVGDRVTITCKASQNVDTNVAWYQQKPGQAPRPLIYSASYRYTGVPSRFSGSGSGTEFTLTISSLQPEDFATYYCQQYNSYPLTFGGGTKVEIKRTVAAPSVFIFPPSDEQLKSGTASVVCLLNNFYPREAKVQWKVDNALQSGNSQESVTEQDSKDSTYSLSSTLTLSKADYEKHKVYACEVTHQGLSSPVTKSFNRGEC
notes: also called MCSP-targeted MHLG1-KV9 Fab-IL-2 wt-Fab
